For at least one compound, name, drawing or mass did not settle the structure. Where a SMILES comes first, the peptide text is derived from it. [ ]: non-standard residue; d: D form. The star is where a group is joined. X5 = COc1cc2cc(c1Cl)N(C)C(=O)C[C@H](OC(=O)[C@H](C)N(C)C(=O)CCS/C(=C\C#N)c1ccc(C(=O)*)cc1)[C@]1(C)O[C@H]1[C@H](C)[C@@H]1C[C@@](O)(NC(=O)O1)[C@H](OC)/C=C/C=C(\C)C2; dPhe(4-Cl) = N[C@H](Cc1ccc(Cl)cc1)C(=O)O; d2Nal = N[C@H](Cc1ccc2ccccc2c1)C(=O)O; NMeY = CN[C@@H](Cc1ccc(O)cc1)C(=O)O; d3Pal = N[C@H](Cc1cccnc1)C(=O)O
Target: T1, LHRHR, also known as GnRHR (Homo sapiens, UniProt P30968)
T1 sequence (P30968 1-328): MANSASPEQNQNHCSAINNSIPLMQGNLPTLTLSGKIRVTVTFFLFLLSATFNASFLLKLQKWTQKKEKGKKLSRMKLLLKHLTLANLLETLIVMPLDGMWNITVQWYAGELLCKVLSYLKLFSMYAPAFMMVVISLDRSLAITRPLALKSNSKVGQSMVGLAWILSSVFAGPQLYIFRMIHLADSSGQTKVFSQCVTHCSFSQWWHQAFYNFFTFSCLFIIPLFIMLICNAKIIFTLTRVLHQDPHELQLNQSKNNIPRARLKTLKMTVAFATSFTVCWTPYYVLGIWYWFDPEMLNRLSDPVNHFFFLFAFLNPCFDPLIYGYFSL
Test: Radioligand binding assay ([125I]-[D-Trp6]-LHRH displacement)
Conditions: read-out: Binding Assay; purified membrane with LHRHR, 0.18 nM [125I]-[D-Trp6]-LHRH, 1 h at 25° C.
Experimental: An amount of 2 μg of a purified membrane with LHRHR, also known as GnRHR, was incubated with 0.18 nM [125I]-[D-Trp6]-LHRH and compounds of interest in the incubation buffer (50 mM HEPES, pH 7.4, 5 mM MgCl2, 1 mM CaCl2, and 0.2% BSA). The reaction mixtures were incubated for 1 h at 25° C. and then were transferred to a 96-well GF/B filter plate (Millipore Corp., Billerica, MA, USA), which were terminated by manifold filtration and washed with a wash buffer (50 mM HEPES, pH 7.4, and 100 mM NaCl) for six times. The radioactivity bound to the filter was measured by a Topcount® system (PerkinElmer Inc., Waltham, MA, USA). IC50 values were determined by the concentration of a compound required to inhibit 50% of the specific binding of [125I]-[D-Trp6]-LHRH and calculated by nonlinear regression (GraphPad Software, San Diego, CA, USA). The design of these drug conjugates is to actively targeting LHRH-receptor at tumor site and facilitate drug conjugate accumulation in situ. Therefore, selective and strong binding of the synthetic peptide ligand with the receptor is important to allow enrichment of these conjugates, followed by release of the drug payload in the tumor microenvironment.
Compounds of the invention have a binding as low as 0.17 nM.

SMILES | IC50
CCNC(=NCCCC[C@@H](NC(=O)[C@H](CC(C)C)NC(=O)[C@@H](CCCCNC(=O)OC[C@H]1[C@@H]2CCc3nnn(CCCO[Si](Oc4ccc(COC(=O)SCCC(=O)N(C)[C@@H](C)C(=O)O[C@H]5CC(=O)N(C)c6cc(cc(OC)c6Cl)C/C(C)=C/C=C/[C@@H](OC)[C@@]6(O)C[C@H](OC(=O)N6)[C@@H](C)[C@@H]6O[C@@]56C)cc4)(C(C)C)C(C)C)c3CC[C@@H]21)NC(=O)[C@H](Cc1ccc(O)cc1)NC(=O)[C@H](CO)NC(=O)[C@@H](Cc1cccnc1)NC(=O)[C@@H](Cc1ccc(Cl)cc1)NC(=O)[C@@H](Cc1ccc2ccccc2c1)NC(C)=O)C(=O)N1CCC[C@H]1C(=O)N[C@H](C)C(N)=O)NCC [Compound 29] | 10 to 100 nM
COc1cc2cc(c1Cl)N(C)C(=O)C[C@H](OC(=O)[C@H](C)N(C)C(=O)CCSC(=O)OCc1ccc(O[Si](OCCCn3nnc4c3CC[C@H]3[C@@H](CC4)[C@@H]3COC(=O)NCCCC[C@@H](NC(=O)[C@H](Cc3ccc(O)cc3)NC(=O)[C@H](CO)NC(=O)[C@@H](Cc3cccnc3)NC(=O)[C@@H](Cc3ccc(Cl)cc3)NC(=O)[C@@H](Cc3ccc4ccccc4c3)NC(C)=O)C(=O)N[C@@H](CC(C)C)C(=O)N[C@@H](CCCNC(=N)N)C(=O)N3CCC[C@H]3C(=O)N[C@H](C)C(N)=O)(C(C)C)C(C)C)cc1)[C@]1(C)O[C@H]1[C@H](C)[C@@H]1C[C@@](O)(NC(=O)O1)[C@H](OC)/C=C/C=C(\C)C2 [Compound 30] | 0.1 to 1 nM
COc1cc2cc(c1Cl)N(C)C(=O)C[C@H](OC(=O)[C@H](C)N(C)C(=O)CCS/C(=C\C#N)c1ccc(C(=O)NCCCC[C@H](NC(=O)[C@H](CC(C)C)NC(=O)[C@@H](CC(N)=O)NC(=O)[C@H](Cc3ccc(O)cc3)N(C)C(=O)[C@H](CO)NC(=O)[C@@H](Cc3cccnc3)NC(=O)[C@@H](Cc3ccc(Cl)cc3)NC(=O)[C@@H](Cc3ccc4ccccc4c3)NC(C)=O)C(=O)N3CCC[C@H]3C(=O)N[C@H](C)C(N)=O)cc1)[C@]1(C)O[C@H]1[C@H](C)[C@@H]1C[C@@](O)(NC(=O)O1)[C@H](OC)/C=C/C=C(\C)C2 [Compound 31] (Ac-[d2Nal][dPhe(4-Cl)][d3Pal]S[NMeY][dN]LK(X5)P[dA]-NH2) | 0.1 to 1 nM

Reference: patent publication US20250121078A1, “PEPTIDE DRUG CONJUGATES AND THEIR USES” (priority 2023, published 2025)
